Assay results published in PMC4336329 (PLoS ONE, 2015).
Out of some 310,000 compounds screened, about 14,000 (4.5%) showed an effect of 50% or more. Effects have a minus sign here. This is one part of the list.

These molecules were tested against human ether-à-go-go-related gene (hERG) potassium channel (human, UniProt Q12809) (assay: primary screen, population patch clamp on CHO cells stably expressing hERG).
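Note: peak tail current of the secondary pulse compared with the same well before compound.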

Sequence of human ether-à-go-go-related gene (hERG) potassium channel (Q12809 whole entry, looked up): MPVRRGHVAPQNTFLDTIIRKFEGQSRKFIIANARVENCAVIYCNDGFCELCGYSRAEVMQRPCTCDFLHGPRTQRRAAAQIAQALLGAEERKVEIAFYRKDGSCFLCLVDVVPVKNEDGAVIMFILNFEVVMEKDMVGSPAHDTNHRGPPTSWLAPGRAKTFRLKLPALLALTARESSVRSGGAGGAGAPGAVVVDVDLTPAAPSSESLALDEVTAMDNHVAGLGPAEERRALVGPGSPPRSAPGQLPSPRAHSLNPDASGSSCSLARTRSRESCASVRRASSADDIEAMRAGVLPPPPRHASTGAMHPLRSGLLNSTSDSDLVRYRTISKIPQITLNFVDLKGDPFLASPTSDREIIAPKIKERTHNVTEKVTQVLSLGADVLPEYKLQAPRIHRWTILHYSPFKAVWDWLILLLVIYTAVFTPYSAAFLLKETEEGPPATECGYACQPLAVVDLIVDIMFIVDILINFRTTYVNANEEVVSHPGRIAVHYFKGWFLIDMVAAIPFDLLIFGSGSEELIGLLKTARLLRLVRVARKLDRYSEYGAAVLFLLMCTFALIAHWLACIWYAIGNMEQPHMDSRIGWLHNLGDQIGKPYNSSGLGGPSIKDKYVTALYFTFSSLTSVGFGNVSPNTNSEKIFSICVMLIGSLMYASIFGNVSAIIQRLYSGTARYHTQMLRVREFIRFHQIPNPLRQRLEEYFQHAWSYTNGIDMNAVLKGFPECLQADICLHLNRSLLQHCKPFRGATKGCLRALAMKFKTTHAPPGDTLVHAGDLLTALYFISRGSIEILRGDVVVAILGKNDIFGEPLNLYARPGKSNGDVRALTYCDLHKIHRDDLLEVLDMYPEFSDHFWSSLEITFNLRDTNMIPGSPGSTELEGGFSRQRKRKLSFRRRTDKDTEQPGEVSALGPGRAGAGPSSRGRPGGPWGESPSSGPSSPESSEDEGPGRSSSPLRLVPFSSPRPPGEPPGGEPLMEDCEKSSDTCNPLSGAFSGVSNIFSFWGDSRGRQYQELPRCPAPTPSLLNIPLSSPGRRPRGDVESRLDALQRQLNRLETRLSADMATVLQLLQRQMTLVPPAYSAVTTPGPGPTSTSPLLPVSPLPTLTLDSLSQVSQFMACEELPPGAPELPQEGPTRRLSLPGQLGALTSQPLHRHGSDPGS

SMILES	hERG current change (%, negative = inhibition) at 10uM
COc1ccc(C(=O)COc2ccccc2C(N)=O)cc1	4.32%
COc1ccc(Cn2cnc3sccc3c2=O)cc1	-8.47%
CC(OC(=O)c1cccc(S(=O)(=O)Nc2ccccc2F)c1)C(=O)NCc1ccc2c(c1)OCO2 (centres unmarked)	12.8%
COc1cc(CN2CCN(C(=O)Cc3ccccc3)CC2)cc(OC)c1OC.O=C(O)C(=O)O	-0.522%
Oc1c(Cl)cc(Cl)cc1C=Nc1ccc(N2CCOCC2)cc1	9.99%
COc1ccc(C(=O)N2CCN(c3ncccn3)CC2)cc1S(=O)(=O)N1CCOCC1	6.96%
CCc1ccc(CN(C(=O)c2cc3ccccc3oc2=O)C2CCS(=O)(=O)C2)cc1 (centres unmarked)	-56.5%
Cc1cccc2cc(CN(CCc3ccccc3)C(=O)N3CCOCC3)c3nnnn3c12	12.5%
CC(=O)Nc1ccc2nc(CN3CCC(CO)(CCc4ccccc4)CC3)ccc2c1	-68.2%
CNC(=O)COC(=O)CNC(=O)c1cc(Cl)cc([N+](=O)[O-])c1	20.2%
O=C(NC1CCCC1)C(NS(=O)(=O)c1ccc(Br)s1)c1ccccc1 (centres unmarked)	5.51%
Cn1c(CC(=O)Nc2ccccc2F)nnc1SCC(=O)Nc1ccccc1Br	8.69%
CC(C)c1ccc(/C=C/C(=O)NCc2ccc(S(N)(=O)=O)cc2)cc1	69.2%
CCOCCOC(=O)C1=C(C)N(C)C(=O)NC1c1cc(Cl)c(O)c(OCC)c1 (centres unmarked)	-9.39%
Cc1ccc(-c2ccnc3cc(C)nn23)cc1	-6.48%
CN(CCOc1ccccc1)C(=O)c1cc(S(=O)(=O)N2CCOCC2)ccc1Cl	-48.4%
COc1ccccc1-n1c(SCC(=O)Nc2cccc(C(=O)O)c2)nnc1-c1ccccc1O	11%
Cc1nnc(NC(=O)CSc2n[nH]c(-c3ccccc3C)n2)s1	8.24%
O=C(CCC(=O)N1CCCC1)Nc1ccc(Cl)c(Cl)c1	0.601%
O=C(Nc1c2c(nn1-c1ccc(F)cc1)CS(=O)(=O)C2)c1ccc(Br)o1	-25.3%
CN(C)c1ccc(C(=S)Nc2ccccc2)cc1	12.5%
COc1ccc(NC(=S)N2CCN(C(=O)c3ccco3)CC2)c(OC)c1	-5.41%
Cl.NCCCCCc1nnc(SCc2cccc(Cl)c2)o1	-16.9%

SMILES	hERG current change (%, negative = inhibition) at 10uM
CCN(CC)C(=O)CSc1nnc(-c2ccccc2)o1	1.36%
O=C(NCc1ccccc1)C12CC3CC(CC(Cl)(C3)C1)C2	2.82%
CC1Cc2ccccc2N1C(=O)CNc1cccc(S(=O)(=O)N2CCCC2)c1 (centres unmarked)	-23.4%
Cc1ccc(S(=O)(=O)N2CCOCC2)cc1NC(=O)COC(=O)CNC(=O)c1ccccc1	9.26%
CSc1nnc(-c2cc(-c3ccc(C)cc3)nc3ccccc23)o1	-2.94%
O=C(Oc1cccc2c(O)cccc12)c1ccccc1	9.18%
O=C(COc1ccc(-c2ccccc2)cc1)N1CCCC1	-54.5%
c1ccc(-c2nc(-c3ccco3)cs2)nc1	-0.597%
CC(C)=CC(=O)Nc1c(C)cc(C)cc1Cl	13.7%
Cc1ccc2nc(-c3cccc(N)c3)[nH]c2c1	9.34%
CCCCCC1CCC(C(=O)N2CCOCC2)CC1 (centres unmarked)	-2.44%
CC(C)(C)C(=O)Nc1ccc(S(=O)(=O)NC2=NCCCCC2)cc1	14.8%
Cc1cc(C)c(/C=C(\C#N)S(=O)(=O)c2ccccc2)[nH]1	11%
CCNc1nc(NCC)n2c(SCC(=O)c3ccc(C(C)C)cc3)nnc2n1	-13.2%
CCC(=O)Nc1nonc1-c1nc2ccccc2n1CCC(C)C	-5.72%
COc1ccc(NC(=O)CSc2nnc(C3CCCCC3)n2N)c(OC)c1	9.5%
O=C(Nc1cccc(S(=O)(=O)N2CCCCC2)c1)C1CCN(C(=O)c2ccc(Cl)cc2)CC1	-31.7%
CCS(=O)(=O)c1ccc2c(c1)N(S(=O)(=O)c1ccc(Cl)cc1)CC(C(=O)O)O2 (centres unmarked)	3.39%
COc1ccc(NC(=O)CSCC(=O)N(C)CCOc2ccc(Cl)cc2)cc1	-40.1%
Cc1ccnc(NS(=O)(=O)c2ccc(N=CC3=C(O)CC(C)(C)CC3=O)cc2)n1	-9.43%
C1CC2NCCC3NCCC(N1)N32 (centres unmarked)	6.04%
CC(C)NC(=O)NC(=O)COC(=O)Cc1ccsc1	0.835%
Cc1ccc(NCC(=O)Nc2c(C)n(C)n(-c3ccccc3)c2=O)cc1S(=O)(=O)N(C)C	5.73%

SMILES	hERG current change (%, negative = inhibition) at 10uM
Cc1cccc(N(C)S(=O)(=O)c2ccc3c(c2)NC(=O)CC(=O)N3)c1	31.8%
Cc1c(NC(=O)COC(=O)C(c2ccc(Cl)cc2)C(C)C)c(=O)n(-c2ccccc2)n1C (centres unmarked)	0.0929%
O=c1c2ccccc2nc(-c2ccccc2)n1-c1nccs1	-1.69%
Br.CCCCCCCCCCn1c2c(c(=N)c3c1CCC3)CCC2	-78.9%
c1ccc(CN2CCN(c3nc4ccccc4c4ccccc34)CC2)cc1	-3.19%
O=C(CCc1nnc2ccc(NCc3ccco3)nn12)N1CCN(c2ccc(F)cc2)CC1	-46.7%
CCOc1cc(C)nc(NCCc2ccc(OC)c(OC)c2)n1	-22.9%
Cc1ccc(C(=O)NC(=S)N2CCN(C)CC2)cc1	-1.37%
O=C(N/N=C/c1ccc(OC(=O)c2cccs2)cc1)c1cccc(F)c1	8.24%
CN(C)C(CNC(=O)c1cccc(S(=O)(=O)Nc2ccccc2Cl)c1)c1ccco1 (centres unmarked)	-27.8%
O=S(=O)(NCC(c1ccco1)N1CCc2ccccc21)c1ccccc1 (centres unmarked)	-15.9%
COc1cccc(NC(=O)NC2CCN(Cc3nnnn3Cc3ccc(F)cc3)CC2)c1	-53.2%
CNC(=O)[C@@]1(Cc2ccccc2)C=C[C@@H](C)N1C(C)=O	5.07%
Cc1cc(C)n(-c2nc(NCC(C)O)c3c4c(sc3n2)CCCC4)n1 (centres unmarked)	-4.89%
COc1c(Cl)cnn(-c2ccc(Cl)c(Cl)c2)c1=O	18.1%
CSc1nc2c(c(=O)n1-c1ccc(F)cc1)SCC2	5%
O=C(O)C1CC=C(Cl)CC1C(=O)NC1CCCCC1 (centres unmarked)	15.5%
N/C(=N\c1nc2ccccc2o1)NC(=O)c1ccc(Cl)cc1	35.6%
CCn1c(SCc2ccccc2)nnc1C1CCN(S(=O)(=O)c2ccc(OC)cc2)CC1	-60.8%
COc1ccc(F)cc1C(=O)C1CCCN(C(=O)c2ccc(C(C)=O)s2)C1 (centres unmarked)	-4.71%
COC(=O)c1[nH]c2ccc(C)cc2c1NC(=O)CN1CCN(c2ccc(F)cc2)CC1	-1.02%
O=C(Nc1ccc(S(=O)(=O)Nc2cnc3ccccc3n2)cc1)c1cccc(OC(F)F)c1	-14.1%
CCOc1ccc(C(=O)NCC(=O)NCC2CCCCC2)cc1OCC	7.79%

SMILES	hERG current change (%, negative = inhibition) at 10uM
CNC(=S)N(C)/N=C1/C(=O)N(Cc2c(Cl)cccc2Cl)c2ccccc21	-7.77%
CCCc1cc(C(=O)OC)c(NC(=O)CCC(=O)O)s1	18.3%
Cc1cc(-c2ccccc2)nc(N2CCC(C(=O)NC(C)C)CC2)n1	4.06%
COc1ccc(OC)c(N(C(=O)c2snc(C(N)=O)c2N)C(C(=O)NCc2ccccc2)c2ccc(O)cc2)c1 (centres unmarked)	-20.6%
COc1ccc(CCNC(=O)c2ccc3nc(N4CCCCC4)sc3c2)cc1OC	-2.71%
COc1ccc(C(=O)N[C@H](C(=O)Nc2ccc(OC)nc2)C(C)C)cc1	-6.37%
CCOC(=O)Cn1cnc2c(nnn2-c2ccccc2)c1=O	-19.1%
Cc1cc(N(C)Cc2ccccc2)nc(-c2ccccc2)n1	-24.1%
Cc1ccc(O)c(-c2cc(-c3cccc(F)c3)n[nH]2)c1	23.6%
CN(Cc1ccc(OCC(O)CN(C)Cc2ccccc2)cc1)Cc1nccn1C (centres unmarked)	-4.14%
Fc1ccc(-c2nnc3sc(C4COc5ccccc5O4)nn23)cc1 (centres unmarked)	-38.7%
Cc1[nH]n(C(N)=S)c(=O)c1N=Nc1ccccc1C(F)(F)F	8.71%
O=c1cc(Nc2ccc3c(c2)OCO3)[nH]c(=O)n1-c1ccc(Br)cc1	8.13%
CC(=O)Nc1ccc(C(=O)OCc2ccc(Br)cc2)cc1	-4.69%
Cc1nnn(-c2nonc2N)c1C(=O)NNC(=O)c1ccc(Cl)c(Cl)c1	-6.51%
CCOC(=O)c1ccc(NC(=O)N2CCN(S(C)(=O)=O)CC2)cc1	9.85%
COc1ccc(CNC(=O)CCOc2ccc(C(C)(C)C)cc2)cc1	8.47%
Cc1cc(C)nc(SCC(=O)Nc2ncc(C(F)(F)F)cc2Cl)n1	2.47%
O=C(COC(=O)c1ccco1)NCc1cccs1	12.4%
Cc1c(NC(NC(=O)CF)C(Cl)(Cl)Cl)c(=O)n(-c2ccccc2)n1C (centres unmarked)	4.94%
